± gives the standard error. This sample is rich in variants without activity.
B1: glmS ribozyme (parent)
chain: AUAAAAGCGCCAGAACUACAGAAAUGUAGUUGACGAGGAGGAGGUUUAUCGAAUUUUCGGCGGAUGCCUCCAAA

Assays:
Conditions in all cases: with glucosamine-6-phosphate
glucosamine-6-phosphate [1] = variants of: B1; experiment: self-cleavage kobs at 40 uM GlcN6P; higher = faster cleavage; RNA array
How it was run: (§1)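 Barcoded ribozyme variants on sequenced MiSeq chips were transcribed in situ by E. coli RNA polymerase and followed at 37 °C through a hybridised Cy3 probe. Glucosamine-6-phosphate at 40 μM to 10 mM in HEPES/KCl/Mg(OAc)2 buffer was flowed in, and tiles were imaged over ~14 h. Signals were normalised to baseline and to non-cleaving reference variants, and per-tile medians were fit to one- or two-exponential decays to give kobs. Weighted Michaelis–Menten fits across concentrations gave kcat and KM.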

glucosamine-6-phosphate [2] = variants of: B1; experiment: self-cleavage kobs at 10000 uM GlcN6P; higher = faster cleavage; RNA array
How it was run: as §1

glucosamine-6-phosphate [3] = variants of: B1; experiment: self-cleavage kobs at 640 uM GlcN6P; higher = faster cleavage; RNA array
How it was run: as §1

glucosamine-6-phosphate [4] = variants of: B1; experiment: self-cleavage kobs at 160 uM GlcN6P; higher = faster cleavage; RNA array
How it was run: as §1

glucosamine-6-phosphate [5] = variants of: B1; experiment: self-cleavage kobs at 2500 uM GlcN6P; higher = faster cleavage; RNA array
How it was run: as §1

Variant	self-cleavage kobs at 40 uM GlcN6P (glucosamine-6-phosphate [1])	self-cleavage kobs at 10000 uM GlcN6P (glucosamine-6-phosphate [2])	self-cleavage kobs at 640 uM GlcN6P (glucosamine-6-phosphate [3])	self-cleavage kobs at 160 uM GlcN6P (glucosamine-6-phosphate [4])	self-cleavage kobs at 2500 uM GlcN6P (glucosamine-6-phosphate [5])
G13C G40U A53U G59U	< 1e-05 s⁻¹	< 1e-05 s⁻¹			
A15G G35C U47C A52G	< 1e-05 s⁻¹	< 1e-05 s⁻¹			
A14C A33G G37U A42U C67G	< 1e-05 s⁻¹				
A14C U31G G37U A42U A52U	< 1e-05 s⁻¹				
G13C G59U	< 1e-05 s⁻¹		< 1e-05 s⁻¹	< 1e-05 s⁻¹	< 1e-05 s⁻¹
A14U A42G	0.000273 ± 3.1e-05 s⁻¹	0.0147 ± 0.0018 s⁻¹	0.00347 ± 0.00055 s⁻¹	0.00064 ± 0.00015 s⁻¹	0.00517 ± 0.001 s⁻¹
A15U U57A U65A	< 1e-05 s⁻¹		< 1e-05 s⁻¹		< 1e-05 s⁻¹
A14G A52C	< 1e-05 s⁻¹				
G13U A52U C70G	< 1e-05 s⁻¹				
A15G U45G	0.000211 ± 3.4e-05 s⁻¹	0.00741 ± 0.001 s⁻¹	0.0024 ± 0.00037 s⁻¹	0.000643 ± 9.8e-05 s⁻¹	0.0044 ± 0.00084 s⁻¹
A15G G66C	3.37e-05 ± 1.1e-05 s⁻¹	0.000649 ± 9.7e-05 s⁻¹	0.000368 ± 6e-05 s⁻¹	0.000115 ± 2.5e-05 s⁻¹	0.000793 ± 0.00014 s⁻¹
A14U U46G	1.98e-05 ± 6.9e-06 s⁻¹	0.00104 ± 0.00012 s⁻¹	0.000293 ± 4.6e-05 s⁻¹	9.07e-05 ± 2.1e-05 s⁻¹	0.000548 ± 0.0001 s⁻¹
G13U C16U	4.83e-05 ± 1.1e-05 s⁻¹		0.0004 ± 6.9e-05 s⁻¹	0.000115 ± 2.9e-05 s⁻¹	
G13U G41C U49G C70G	< 1e-05 s⁻¹				
A14C A33G G38A G41U	< 1e-05 s⁻¹				< 1e-05 s⁻¹
A15C C68A	< 1e-05 s⁻¹				
A15G A42C G51C G60U C67A C68U	< 1e-05 s⁻¹				
A15U U49A	< 1e-05 s⁻¹	< 1e-05 s⁻¹		< 1e-05 s⁻¹	< 1e-05 s⁻¹
A15G G41U	0.000204 ± 2.3e-05 s⁻¹				
A14C C34U A36U	< 1e-05 s⁻¹		< 1e-05 s⁻¹		< 1e-05 s⁻¹
A15G G35C C68A	< 1e-05 s⁻¹				
A15C G43A	< 1e-05 s⁻¹		< 1e-05 s⁻¹	< 1e-05 s⁻¹	
A14C A39G C58G C71U	< 1e-05 s⁻¹				
G13U A64U	< 1e-05 s⁻¹	< 1e-05 s⁻¹	< 1e-05 s⁻¹	< 1e-05 s⁻¹	< 1e-05 s⁻¹
A15C C16G G37A C71U	< 1e-05 s⁻¹				
A14U C16A U31C U49G G59U	< 1e-05 s⁻¹				
A14C G59U	< 1e-05 s⁻¹		< 1e-05 s⁻¹		

Variant	self-cleavage kobs at 40 uM GlcN6P (glucosamine-6-phosphate [1])	self-cleavage kobs at 10000 uM GlcN6P (glucosamine-6-phosphate [2])	self-cleavage kobs at 640 uM GlcN6P (glucosamine-6-phosphate [3])	self-cleavage kobs at 160 uM GlcN6P (glucosamine-6-phosphate [4])	self-cleavage kobs at 2500 uM GlcN6P (glucosamine-6-phosphate [5])
A14U U30A	3.62e-05 ± 1e-05 s⁻¹		0.000337 ± 5.2e-05 s⁻¹	8.35e-05 ± 1.7e-05 s⁻¹	
A15C A52U A53G U56C	< 1e-05 s⁻¹				
A14U C50A A53G C70A	< 1e-05 s⁻¹				7.44e-05 ± 1.4e-05 s⁻¹
A14G U54C	0.00134 ± 0.00025 s⁻¹	0.105 ± 0.042 s⁻¹	0.0185 ± 0.0064 s⁻¹	0.00536 ± 0.00096 s⁻¹	
A15U C50U G60U	< 1e-05 s⁻¹	< 1e-05 s⁻¹			
G13U G32C A36U	< 1e-05 s⁻¹				< 1e-05 s⁻¹
A14G G51C	< 1e-05 s⁻¹		< 1e-05 s⁻¹		
A14C A39C A42G G62U C70G	< 1e-05 s⁻¹				
G13U G44U U69G	< 1e-05 s⁻¹	< 1e-05 s⁻¹			
A14G C58G G60U U65C	< 1e-05 s⁻¹	< 1e-05 s⁻¹			
A15G U25A C50G C70U	6.43e-05 ± 1.3e-05 s⁻¹	6.03e-05 ± 1.6e-05 s⁻¹			
A15C G44C	< 1e-05 s⁻¹		< 1e-05 s⁻¹	< 1e-05 s⁻¹	
A15G A33G G41C U57C U65G C70U	< 1e-05 s⁻¹		< 1e-05 s⁻¹	< 1e-05 s⁻¹	< 1e-05 s⁻¹
A14U A15G G43C	< 1e-05 s⁻¹		< 1e-05 s⁻¹		
A14G G60A	< 1e-05 s⁻¹			< 1e-05 s⁻¹	
G13C G43A G63A A64G	< 1e-05 s⁻¹	< 1e-05 s⁻¹			
A15G G63C	< 1e-05 s⁻¹	< 1e-05 s⁻¹	< 1e-05 s⁻¹	< 1e-05 s⁻¹	< 1e-05 s⁻¹
A14G U49C U54A U65C	< 1e-05 s⁻¹				
A15U U56C C61U	< 1e-05 s⁻¹	< 1e-05 s⁻¹			
G13U A36G G62U G66U C70A	< 1e-05 s⁻¹				
A15C G40A	2.42e-05 ± 9.8e-06 s⁻¹				
A15U G41C	< 1e-05 s⁻¹				
A15C G41A A42U C71G	< 1e-05 s⁻¹				
A15U U56G	0.000149 ± 2.5e-05 s⁻¹	0.00565 ± 0.00088 s⁻¹	0.00143 ± 0.00018 s⁻¹	0.000265 ± 5e-05 s⁻¹	0.00363 ± 0.00053 s⁻¹
A15G G35A A53C U65C	< 1e-05 s⁻¹	< 1e-05 s⁻¹			
A14U G62U	< 1e-05 s⁻¹	< 1e-05 s⁻¹	< 1e-05 s⁻¹		< 1e-05 s⁻¹
A15G A39C C61U G63C C68G	< 1e-05 s⁻¹		< 1e-05 s⁻¹		
